The source of these data is PMC4081074, “Brd4 activates P-TEFb for RNA polymerase II CTD phosphorylation” (Nucleic Acids Research, 2014).

Assay [1] concerns the target T1, P-TEFb (Cdk9/CycT1 1-272) (UniProt P50750; O60563 part only). Put plainly: cell-based or functional assay.
The target of assay [2] is T1, P-TEFb (Cdk9/CycT1 1-272). Put plainly: ITC; iTC200; 100 μM Brd4 PID titrated stepwise from the syringe into 10 μM P-TEFb (bound to AppNHp) or CycT1 1-272 in the cell; 298 K; 50 mM Hepes pH 7.6, 250 mM NaCl, 5% glycerol, 1 mM MgCl2, 1 mM TCEP. Particulars: both partners purified.

By Kd is commonly meant the equilibrium constant for the complex coming apart. A low value points to a tighter complex. A word on the stoichiometry N: it is the number of molecules, sites or subunits per partner or assembly.

T1 sequence (P50750 whole entry, chain 1 of 2): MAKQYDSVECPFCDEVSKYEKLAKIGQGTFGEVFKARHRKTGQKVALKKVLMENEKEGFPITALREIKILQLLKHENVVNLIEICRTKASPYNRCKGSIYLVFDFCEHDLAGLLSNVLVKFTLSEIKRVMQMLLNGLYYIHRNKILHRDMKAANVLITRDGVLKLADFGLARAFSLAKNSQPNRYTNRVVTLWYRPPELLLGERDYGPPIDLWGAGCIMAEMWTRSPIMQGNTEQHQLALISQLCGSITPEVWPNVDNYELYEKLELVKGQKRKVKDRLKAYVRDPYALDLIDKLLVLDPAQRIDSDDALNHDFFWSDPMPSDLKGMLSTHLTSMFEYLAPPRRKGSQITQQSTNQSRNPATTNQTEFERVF
T1 sequence (O60563 1-272, chain 2 of 2, further chain): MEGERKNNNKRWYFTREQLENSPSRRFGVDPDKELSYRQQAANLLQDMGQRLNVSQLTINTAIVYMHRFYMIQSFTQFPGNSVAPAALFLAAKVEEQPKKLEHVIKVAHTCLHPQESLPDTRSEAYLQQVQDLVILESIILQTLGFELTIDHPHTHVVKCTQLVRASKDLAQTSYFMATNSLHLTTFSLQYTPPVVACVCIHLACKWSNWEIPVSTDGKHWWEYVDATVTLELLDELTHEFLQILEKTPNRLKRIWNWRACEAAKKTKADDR

B1: Brd4 P-TEFb interaction domain (PID) (domain or fragment)
chain: not shown
notes: cloned from a synthetic plasmid codon optimized for E. coli; also called Brd4 PID; not shown: GST, N-terminal, cleaved
As for B1, in assay [1], the “catalytic efficiency (Kcat/KM) of P-TEFb for GST-CTD phosphorylation in time course kinase assays, with PID against P-TEFb alone” value turned out to be 2 fold. In assay [2], binding was put at a Kd of 470 ± 140 nM, the dH was -20.1 ± 1.2 kcal/mol and the “stoichiometry N” value worked out at 0.65 ± 0.03.
